Laboratory results reported in PMC4336329 (PLoS ONE, 2015).
Among all 310,000 compounds or so, about 14,000 (4.5%) showed an effect of 50% or more. Effects have a minus sign here. The list shows a part of the results.

Target: human ether-à-go-go-related gene (hERG) potassium channel (human, UniProt Q12809)
Test: primary screen, population patch clamp on CHO cells stably expressing hERG
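Also: peak tail current of the secondary pulse compared with the same well before compound.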

Chain of human ether-à-go-go-related gene (hERG) potassium channel (Q12809 whole entry, looked up): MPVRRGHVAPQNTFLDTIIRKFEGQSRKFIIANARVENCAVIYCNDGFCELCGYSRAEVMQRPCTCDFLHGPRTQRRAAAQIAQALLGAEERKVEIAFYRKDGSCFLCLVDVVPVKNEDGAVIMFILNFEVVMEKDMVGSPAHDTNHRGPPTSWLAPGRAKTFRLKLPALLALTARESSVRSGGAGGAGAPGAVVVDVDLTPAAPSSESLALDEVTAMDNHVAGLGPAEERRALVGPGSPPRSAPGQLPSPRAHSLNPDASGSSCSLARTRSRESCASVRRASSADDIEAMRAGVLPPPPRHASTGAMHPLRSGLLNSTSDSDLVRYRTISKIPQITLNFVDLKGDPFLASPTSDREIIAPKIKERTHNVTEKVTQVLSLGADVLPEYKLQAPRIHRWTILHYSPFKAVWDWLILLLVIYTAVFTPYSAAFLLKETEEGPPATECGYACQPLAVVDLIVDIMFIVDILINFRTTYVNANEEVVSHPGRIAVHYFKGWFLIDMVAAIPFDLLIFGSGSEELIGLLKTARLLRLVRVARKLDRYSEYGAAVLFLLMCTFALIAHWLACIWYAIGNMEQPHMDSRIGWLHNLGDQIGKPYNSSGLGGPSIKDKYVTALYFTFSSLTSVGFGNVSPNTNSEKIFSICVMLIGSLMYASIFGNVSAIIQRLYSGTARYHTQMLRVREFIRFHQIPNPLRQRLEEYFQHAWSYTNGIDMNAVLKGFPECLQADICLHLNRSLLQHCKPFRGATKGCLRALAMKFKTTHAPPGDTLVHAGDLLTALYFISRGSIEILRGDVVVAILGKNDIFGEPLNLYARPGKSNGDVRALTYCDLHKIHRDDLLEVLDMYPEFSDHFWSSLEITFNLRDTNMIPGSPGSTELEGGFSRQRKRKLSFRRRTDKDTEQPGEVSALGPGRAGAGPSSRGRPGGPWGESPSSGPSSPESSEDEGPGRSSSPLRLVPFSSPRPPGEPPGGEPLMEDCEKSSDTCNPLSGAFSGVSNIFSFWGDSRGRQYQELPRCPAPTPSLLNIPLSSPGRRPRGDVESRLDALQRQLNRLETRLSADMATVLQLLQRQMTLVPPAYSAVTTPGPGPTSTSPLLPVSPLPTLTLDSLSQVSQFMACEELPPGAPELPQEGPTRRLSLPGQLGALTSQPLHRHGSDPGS

Structure (SMILES)	hERG current change (%, negative = inhibition) at 10uM [%]
CC(C(=O)Nc1ccc(OCc2ccccc2)cc1)N1CCCC1 (stereo not drawn)	-21.6
CC(C)(C)C(=O)Nc1ccccc1C(=O)OCC(=O)c1ccc2c(c1)OCCO2	7.1
COc1ccc(CCN2CC(C(=O)OC(C)C(=O)Nc3cccc(Cl)c3)CC2=O)cc1OC (stereo not drawn)	-5.73
Cc1[nH]c2c(C)cccc2c1CN1CCC(CO)(Cc2ccccc2)CC1	-62.2
COC(=O)CCC(=O)Nc1cc(S(=O)(=O)Nc2ccc(Cl)cc2)ccc1N1CCOCC1	-17.6
O=C(/C=C/c1ccc2ccccc2n1)N1CCN(S(=O)(=O)c2ccccc2F)CC1	-15.9
O=C(CC12CC3CC(CC(C3)C1)C2)NC(=S)NCc1ccco1	15
Cc1cccc(N2CCN(S(=O)(=O)c3ccc4[nH]c(=O)c(=O)[nH]c4c3)CC2C)c1 (stereo not drawn)	12.9
COc1ccc(CCNC(=O)CCc2nc3sc4c(c3c(=O)[nH]2)CCCC4)cc1	9.78
Cc1ccc(Cn2ccc(O)c(Cc3ccccc3)c2=O)cc1	8.76
CCOC(=O)C1CCN(C(=O)COc2ccc3c(C)cc(=O)oc3c2)CC1	-21.8
O=[N+]([O-])c1cccc(-c2nnc(C3CC3)o2)c1	-8.07
CC(=O)C1=C(O)C(=O)N(c2cc(C(C)(C)C)on2)C1c1ccc(Br)cc1 (stereo not drawn)	-10.1
COCCNC(=O)c1cn(C)c2ccc(S(=O)(=O)N(C)C3CCCCC3)cc2c1=O	-27.7
CC(C)(C)NC(=O)C(OC(=O)c1ccco1)c1ccc(Cl)cc1 (stereo not drawn)	17.8
Cc1ccc(C(=O)NC2CCS(=O)(=O)C2)cc1S(=O)(=O)N1CCCCCC1 (stereo not drawn)	-49.2
CSc1ccccc1NC(=O)CN(C)S(=O)(=O)c1ccc(F)cc1	-35.2
COc1cc(OC)cc(C(=O)Nc2ccc(Nc3ccccc3)cc2)c1	-5.67
COC(=O)CN1C(=O)COc2ccc(Cl)cc21	7.5
CN(C)c1ccc(/C=N/NC(=O)c2ccc(Cl)cc2)cc1	-1.48
CCN1CCN(c2ncc3c(n2)CC(c2cc(OC)c(OC)c(OC)c2)CC3=O)CC1 (stereo not drawn)	-2.39
CCc1ccc(N2C(=O)CC(c3ccc(F)cc3)C3=C2COC3=O)cc1 (stereo not drawn)	-15.2
CN(/N=C/c1ccc(Cl)cc1Cl)c1ncc(Cl)cc1C(F)(F)F	8.46
COc1ccc(NC(=O)COc2nsnc2N2CCCCC2)cc1	3.59
COC(=O)c1ccc2c(=O)n(CCCCCC(=O)N3CCN(c4ccccc4)CC3)c(=O)[nH]c2c1	-0.133
Oc1[nH]c2ccccc2c1N=Nc1nc2ccccc2s1	-1.15
Cc1ccc(NC(=O)CCS(=O)(=O)c2cc3[nH]c(=O)c(=O)[nH]c3cc2C)cc1	25.1

Structure (SMILES)	hERG current change (%, negative = inhibition) at 10uM [%]
O=C([O-])/C=C\C(=O)[O-].c1ccc2nc(N3CCNCC3)ccc2c1	-1.6
Cc1ccc(C(=O)Cn2nc(C)c([N+](=O)[O-])c2C)c(C)c1	-25.1
CCOc1ccc(NC(=O)CSc2nnc(-c3ccccn3)n2N)cc1	-12
Cc1cc(C)n2nc(CNS(=O)(=O)c3ccc(C)c(C)c3)nc2n1	4.59
Cc1ccccc1N1CCN(c2ccc(NC(=O)C3CCCCC3C(=O)O)cc2)CC1 (stereo not drawn)	6.88
CCn1c(N2CCN(S(=O)(=O)c3ccc(Cl)cc3)CC2)nc2ccccc21	-48.4
Cl.Cn1nnnc1SCCNCc1ccccc1OCc1ccc(F)cc1	-29.6
CC1(C)CC(=NOC(=O)c2ccccc2)CC(C)(C)N1	-13.4
Cc1nn(-c2ccccn2)c2c1C(c1ccccc1Cl)C1=C(N2)c2ccccc2C1=O (stereo not drawn)	20.2
O=C(CSc1ncn[nH]1)Nc1ccc(Br)cc1F	-5.57
COc1ccccc1/C=C1/C(=O)N(c2cc(C)cc(C)c2)C(c2cccc([N+](=O)[O-])c2)S1(=O)=O (stereo not drawn)	11.9
CSCC[C@H](NC(=O)[C@@H]1CSC2c3ccccc3C(=O)N21)C(=O)NCc1ccco1 (stereo partly drawn)	-16.8
C=CCn1c(O)c(/C=N/NC(=O)CCCC)c(=O)[nH]c1=S	19.4
COc1ccc(NS(=O)(=O)c2cccc(NC(=O)c3ccccn3)c2)cc1	-13.1
CCCC1=Nc2cc(C(=O)NCCN3CCOCC3)ccc2Sc2ccccc21	-8.26
Cc1nn(-c2ccc(C(F)(F)F)cn2)c(C)c1Oc1ccccc1O	17.3
O=C(CNC(=O)c1ccc(Cl)cc1)OCC(=O)c1ccc2c(c1)OCCO2	-11.8
CCCC(=O)OCC(=O)Nc1ccccc1Sc1ccccc1	14.7
Cc1nn(Cc2c(Cl)cccc2Cl)c(C)c1C(=O)NCc1ccc(C)n1C	1.38
O=C(COC(=O)Cc1n[nH]c(=O)c2ccccc12)Nc1ccc(Cl)cc1F	10.7
CC(C)C(=O)NC(=S)N(Cc1ccccc1)Cc1ccccc1	-40.2
COc1ccc(OC)c(NP(=O)(Oc2ccc(Cl)cc2)Oc2ccc(Cl)cc2)c1	9.79
COc1ccc(CN(C)C(=O)Cc2ccc(OC)c(S(=O)(=O)N3CCOCC3)c2)cc1	-20.4
O=C(N/N=C/c1cccc(F)c1)c1cc(-c2ccco2)nc2ccccc12	9.96
O=C(CN1C(=O)C2C3C=CC(C3)C2C1=O)NCc1ccc2c(c1)OCO2 (stereo not drawn)	-1.81
CN1CCN(C(=O)C2CCN(S(=O)(=O)c3cnc[nH]3)CC2)CC1	12.7
COCCNC(=O)CN(CCc1ccccc1)S(=O)(=O)c1ccc(Br)cc1	-14.9
